In PubChem BioAssay AID504832 (National Center for Advancing Translational Sciences (NCATS), 2011):
Out of some 310,000 compounds screened, about 18,000 (5.8%) were called active. Inconclusive means that the source gave no clear call. Such entries were picked first, then a sample of the others. The call rests on the fitted dose curve; in most records, active means well fitted inhibition curve with a large enough effect; inconclusive means small, poorly fitted or top-dose-only effect, or another doubt; inactive means no such curve, though single readings can be large or run the other way. No potency is given beside an inconclusive call; the fits are too rough.

Assay: Primary qHTS for delayed death inhibitors of the malarial parasite plastid, 48 hour incubation
Details: P. falciparum luciferase growth in erythrocytes; series mostly up to 28.7 µM; activity change, negative = inhibition: at the top concentration
In short: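 A one-generation exposure of luciferase-tagged malaria parasites in RPMI 1640/Albumax erythrocyte culture, 37 C and 5% CO2. Inhibition is inferred from decreased luminescence after adding detection reagent.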
On the % scale 0 is the no-effect control and ±100 the full control effect; potency means the concentration at half of the fitted maximal effect; tags describe the fitted curve by direction and shape.

| SMILES | Potency | activity change, negative = inhibition |
| --- | --- | --- |
| NC(=O)CCN1CCN(Cc2nc(C(c3ccccc3)c3ccccc3)no2)CC1 | inconclusive [inhibitor, partial curve] |  |
| Cc1ccc(NC(=O)CCl)c(C)c1 | active: 1.85 µM |  |
| COCC(C)n1c(SCC(=O)NC(=O)Cc2ccccc2)nc2ccccc2c1=O (stereo unspecified) |  | inactive: 4.76% |
| CCCC(C(=O)NC1CCCC1)N(Cc1ccc(OC)cc1)C(=O)c1snc(C(N)=O)c1N (stereo unspecified) | inconclusive [inhibitor, single point] |  |
| COc1ccc(-[n+]2c(-c3ccccc3)cc(-c3ccccc3)cc2-c2ccccc2)cc1 | active: 0.828 µM |  |
| COc1ccc(Oc2ccc(C(F)(F)F)cc2N)cc1 | inconclusive [inhibitor, single point] |  |
| Cc1ccc(NC(=O)CSCC(=O)Nc2ccc(N3CCOCC3)cc2N2CCOCC2)cc1 | inconclusive [inhibitor, single point] |  |
| COc1ccc(OC)c2sc(N(CCCN(C)C)C(=O)c3ccc(S(=O)(=O)N4CCc5ccccc5C4)cc3)nc12 | inconclusive [inhibitor, single point] |  |
| COc1ccc(OCc2cc(C(=O)N3CCCCCCC3)no2)c(Cl)c1 | inconclusive [inhibitor, single point] |  |
| N#Cc1c(N)nc(SCC(=O)NC2CCCCC2)c(C#N)c1-c1ccc(Cl)cc1 | inconclusive [inhibitor, partial curve, poor fit] |  |
| CC1CC(C)CN(CCOc2ccc(Cl)cc2Cl)C1 (stereo unspecified) | active: 10.4 µM |  |
| Cc1c(S(=O)(=O)c2ccccn2)c(N)n(Cc2cccc(Cl)c2)c1C | inconclusive [inhibitor, single point] |  |
| Cc1ccc(Nc2nc(-c3sc(NC(=O)c4cccc(Cl)c4)nc3C)cs2)cc1 | active: 2.33 µM |  |
| Cc1c(Cl)cccc1NC(=O)C1CCN(c2cnccn2)CC1 | inconclusive [inhibitor, full curve, poor fit] |  |
| CC(c1ccc(F)cc1)n1c(-c2ccc3ccccc3n2)n[nH]c1=S (stereo unspecified) | inconclusive [inhibitor, full curve, poor fit] |  |
| COc1ccc([C@@H]2Sc3ccccc3N(CCN(C)C)C(=O)[C@@H]2OC(C)=O)cc1 | inconclusive [inhibitor, single point] |  |
| COc1cccc(-c2nnc3n2N=C(c2cc(OC)ccc2OC)CS3)c1 | inconclusive [inhibitor, partial curve] |  |
| CC(C)(C)NC(=O)CCN(/N=C/c1ccccc1O)C1=NS(=O)(=O)c2ccccc21 | inconclusive [inhibitor, full curve, poor fit] |  |
| COc1cc(/C=C(\C#N)c2nc3ccccc3[nH]2)c([N+](=O)[O-])cc1OCc1ccccc1 | active: 2.62 µM |  |
| CCN(CC)Cc1c(O)ccc2c(=O)c(Oc3ccccc3OC)coc12 |  | inactive: -3.08% |
| CCOC(=O)c1ccc(-n2c(N)c(C(=O)NCc3ccco3)sc2=S)cc1 | inconclusive [inhibitor, single point] |  |

| SMILES | Potency | activity change, negative = inhibition |
| --- | --- | --- |
| Cc1cc(Cn2nc(-c3ccccc3)cc2C(=O)NCc2cccs2)on1 | inconclusive [inhibitor, single point] |  |
| C=CCn1c(SCC(=O)NCC)nc2sc3c(c2c1=O)CCC3 | active: 7.38 µM |  |
| Cn1c(=O)n(C)c2cc([N+](=O)[O-])c(N3CCN(C(=O)c4ccc(F)cc4)CC3)cc21 | inconclusive [inhibitor, partial curve, poor fit] |  |
| COc1ccc(C(=O)COc2ccc(C)cc2NC(C)=O)cc1 |  | inactive: 108% |
| COc1cccc(NC(=O)Cn2c(=O)n(C)c(=O)c3sc4c(c32)COC(C)(C)C4)c1 | active: 4.15 µM |  |
| COc1ccc(Nc2nc(-c3c(C)nc4ncccn34)cs2)cc1 | inconclusive [inhibitor, single point] |  |
| Cc1ccccc1S(=O)(=O)NNC(=O)C(=O)NNc1ccccn1 | inconclusive [inhibitor, single point] |  |
| CC(C)Oc1ccc(C(=O)Nc2ccc(N3CCN(C(=O)c4ccco4)CC3)cc2)cc1 | inconclusive [inhibitor, full curve] |  |
| CN(C(=O)CC(NC(=O)c1ccccc1Cl)c1ccccc1)c1ccccc1 (stereo unspecified) | inconclusive [inhibitor, partial curve, poor fit] |  |
| C=CC[N+]1(CC#Cc2ccccc2)CCCC1 | inconclusive [inhibitor, full curve] |  |
| CCOC(=O)N1CCC(Nc2nc3ccccc3n3nnnc23)CC1 | inconclusive [inhibitor, single point] |  |
| CCOC(=O)c1sc(NC(=O)CSc2nc3c(c(=O)n2-c2ccc(F)cc2)SCC3)c(C(=O)OCC)c1C | active: 2.62 µM |  |
| CCOc1ccc(NC(=S)Nc2cccc3ccccc23)cc1 | inconclusive [inhibitor, partial curve, poor fit] |  |
| COc1cc2nc(N(CCCN(C)C)C(=O)c3ccc(S(=O)(=O)N4CCc5ccccc5C4)cc3)sc2cc1OC | inconclusive [inhibitor, single point] |  |
| COc1cccc(CN(C)C(=O)/C=C/c2ccc(S(=O)(=O)N3CCCCCC3)cc2)c1 | active: 11.7 µM |  |
| O=S(=O)(c1ccccc1)N1CCC2(CC1)OCCN2S(=O)(=O)c1cccs1 | inconclusive [inhibitor, single point] |  |
| Cc1cc(C2=NNC(=NCCc3ccccc3)SC2)c(C)n1CC1CCCO1 (stereo unspecified) | inconclusive [inhibitor, single point] |  |
| CCCOC(=O)C1=C(C)NC2=C(C(=O)CCC2)C1c1cccs1 (stereo unspecified) |  | inactive: -12.6% |
| Cc1ccc(NC(=O)c2ccccc2SCC(=O)N2CCCC2)cc1S(=O)(=O)N(C)C | inconclusive [inhibitor, partial curve] |  |
| COc1ccccc1C(=O)NC(=S)Nc1ccc(Cc2ccncc2)cc1 | inconclusive [inhibitor, single point] |  |
